Experimental data from PubChem BioAssay AID1468 (National Center for Advancing Translational Sciences (NCATS), 2008).
Out of some 280,000 compounds screened, about 1,100 (0.39%) were called active. The inconclusive results got no clear call from the source; some entries with a clear call stand among them for comparison. Calls follow the shape of the dose curve; as a rule, active = well fitted inhibition curve with a large enough effect; inconclusive = small, poorly fitted or top-dose-only effect, or effect the other way; inactive = flat fitted curve, though single readings scatter. No potency is given beside an inconclusive call; the fits are too rough.

target: Microtubule-associated protein tau (Homo sapiens) (UniProt P10636); assay: qHTS for Inhibitors of Tau Fibril Formation, Fluorescence Polarization; settings: K18 P301L tau heparin fibrillization, Alexa594 FP, 6 h; series mostly up to 57.7 µM; also: nearly all actives have a fitted effect of over 55% in size
How it was run: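 Human tau K18 […] P301L fragment, 15 uM unlabeled plus 0.24 uM Alexa 594-labeled tau (final), with compound and 20 uM heparin in 100 mM sodium acetate pH 7; 6 hr at 37 C, then Alexa 594 FP read.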
Potency is read from the fitted curve at half-maximal effect; tags tell the direction and shape of the fitted curve.

Sequence of UniProt P10636 (P10636 whole entry, looked up, the tested form may be a part): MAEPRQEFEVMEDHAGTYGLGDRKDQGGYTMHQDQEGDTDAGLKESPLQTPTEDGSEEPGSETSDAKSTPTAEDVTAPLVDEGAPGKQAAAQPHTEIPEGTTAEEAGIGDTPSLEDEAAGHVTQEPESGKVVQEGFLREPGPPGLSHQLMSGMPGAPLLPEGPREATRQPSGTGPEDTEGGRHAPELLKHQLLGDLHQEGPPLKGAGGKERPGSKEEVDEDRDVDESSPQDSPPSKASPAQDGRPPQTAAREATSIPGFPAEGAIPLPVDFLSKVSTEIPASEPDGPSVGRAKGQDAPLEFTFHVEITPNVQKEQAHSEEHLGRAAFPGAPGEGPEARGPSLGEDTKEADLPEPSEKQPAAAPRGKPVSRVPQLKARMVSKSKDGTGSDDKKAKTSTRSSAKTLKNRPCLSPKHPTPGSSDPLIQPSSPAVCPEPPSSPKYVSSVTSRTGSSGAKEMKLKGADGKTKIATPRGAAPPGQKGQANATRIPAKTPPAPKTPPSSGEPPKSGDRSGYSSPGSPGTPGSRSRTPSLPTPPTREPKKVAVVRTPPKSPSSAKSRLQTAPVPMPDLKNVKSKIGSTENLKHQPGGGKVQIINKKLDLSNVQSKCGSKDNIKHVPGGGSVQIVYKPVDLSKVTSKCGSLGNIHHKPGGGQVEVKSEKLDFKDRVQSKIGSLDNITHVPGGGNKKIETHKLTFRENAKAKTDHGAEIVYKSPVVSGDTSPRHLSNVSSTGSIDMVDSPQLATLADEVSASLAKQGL

SMILES	Potency
CCOC(=O)/C=C/CCC/C=C/C(=O)c1ccccc1	inactive
COc1ccc(/C=C2/SC(=O)N(CC(O)Cn3c4ccccc4c4ccccc43)C2=O)cc1 (configuration not stated)	inconclusive [inhibitor, partial curve]
CCc1ccc(C(=O)c2c(N)c(-c3nc(-c4ccc5c(c4)OCO5)cs3)c3ccccn23)cc1	inconclusive [activator, partial curve]
CSc1ccccc1NC(=O)CNCCCN1CCOCC1	inactive
O=C(Cn1c(=O)n(-c2ccc(Cl)cc2)c(=O)c2sc3ccccc3c21)NC1CCCCC1	inconclusive [inhibitor, partial curve]
COc1ccc(-c2cc(C(F)(F)F)nc(NCc3ccccc3)n2)cc1	inconclusive [inhibitor, single point]
CN(Cc1ccccc1)C(C(=O)NC1CCCCC1)c1ccc(Cl)cc1 (configuration not stated)	inactive
NC(=S)N=Nc1c(O)n(Cc2ccc(F)cc2)c2ccccc12	inconclusive [inhibitor, partial curve]
Cc1ccc(NC(=O)COC(=O)CCc2c[nH]c(=O)[nH]2)cc1	inconclusive [inhibitor, single point]
O=C(NC(=S)Nc1ccccc1O)c1ccc(-c2ccc(Cl)cc2)o1	inconclusive [inhibitor, partial curve]
O=C(Nc1ccc(Br)cc1)c1ccc(Br)c(S(=O)(=O)N2CCCCC2)c1	inconclusive [inhibitor, partial curve]
O=C(Cn1nc(-c2ccccc2Cl)ccc1=O)Nc1ccc(Br)cc1	inconclusive [inhibitor, partial curve]
Cc1cc(=O)oc(C)c1C(=O)OCC(=O)c1ccc(Br)cc1	inactive
Cc1cc(C(=O)CSc2cccc[n+]2[O-])c(C)n1-c1ccc(OC(F)F)cc1	inactive
Cc1cn2c(=O)cc(COC(=O)c3cccc(NC(=O)COc4ccc(Cl)cc4)c3)nc2s1	inconclusive [inhibitor, partial curve, poor fit]
COc1ccc2cc3cc(C(=O)NCCc4ccccc4)sc3nc2c1Cl	inconclusive [inhibitor, full curve]
CC(=O)c1ccc2c(c1)C1C=CCC1C(c1ccncc1)N2 (configuration not stated)	inconclusive [inhibitor, single point]
CCc1ccccc1N(C)S(=O)(=O)c1ccc2[nH]cc(C(=O)NCCOC)c(=O)c2c1	inconclusive [inhibitor, partial curve, poor fit]
COc1ccc(N(CC(=O)N/N=C/c2ccc3c(c2)OCO3)S(=O)(=O)c2ccc(NC(C)=O)cc2)cc1	inconclusive [inhibitor, partial curve]
COc1cc(/C=C(\C#N)c2nc3ccc(C)cc3[nH]2)ccc1OC(C)C	inactive
CCC(C)n1c(=N)c(S(=O)(=O)c2ccccc2)cc2c(=O)n3ccccc3nc21 (configuration not stated)	inconclusive [inhibitor, partial curve]

SMILES	Potency
CCCOc1ccc(C(=O)NNC(=S)NC(=O)CC)cc1	inconclusive [inhibitor, single point]
Cc1ccc(NC(=O)Cn2c(=O)nc(-c3ccccc3F)c3cc(Cl)ccc32)c(Br)c1	inactive
CCOc1ccc(S(=O)(=O)N(CC(=O)NCCSCc2ccccc2)c2ccccc2)cc1	inconclusive [inhibitor, partial curve, poor fit]
CCCCCNCC(=O)Nc1cccc(C(=O)Nc2cccc(C(F)(F)F)c2)c1	inconclusive [inhibitor, partial curve]
O=C(O)c1ccc2c(c1)C(=O)N(Cc1ccccc1)C2=O	inactive
c1ccc(CCNc2ccnc3cc4ccccc4cc23)cc1	inconclusive [activator, single point]
O=C(Cn1c2ccccc2c2nc3n(c(=O)c21)CCS3)Nc1ccccc1C(F)(F)F	inconclusive [inhibitor, partial curve]
COc1ccc(CNC(=S)Nc2ccc(F)c(Cl)c2)cc1	inconclusive [inhibitor, single point]
O=S1(=O)N=C(Nc2cccc(C(F)(F)F)c2)c2ccccc21	inconclusive [inhibitor, single point]
C/C(=N\NC(=O)C1COc2ccccc2O1)c1ccc(Cl)s1 (configuration not stated)	inactive
CCC(Sc1nc(C)cc(=O)[nH]1)C(=O)Nc1sc2c(c1C#N)CCCC2 (configuration not stated)	inactive
Cc1cccc(C(=O)NC2C(=O)NNC2c2ccc(Cl)cc2)c1 (configuration not stated)	inconclusive [inhibitor, partial curve]
CC(C)(C)c1ccc(OCC(=O)Nc2c(C(=O)c3ccc(F)cc3)oc3ccccc23)cc1	inconclusive [inhibitor, single point]
COc1cc(C(=O)NCCSc2c(-c3ccccc3)[nH]c3ccccc23)cc(OC)c1OC	inactive
COc1ccc2[nH]cc(CCNc3nc(-c4cccc(NS(C)(=O)=O)c4)nc4ccccc34)c2c1	inconclusive [activator, full curve]
O=S1(=O)N=C(Nc2ccc(S(=O)(=O)N3CCCCC3)cc2)c2ccccc21	inconclusive [inhibitor, single point]
Cc1ccc2nc(C)cc(C(=O)OCC(=O)Nc3cccnc3Cl)c2c1	inconclusive [inhibitor, single point]
Cc1ccc(NC(=O)C2C3CC4OC(=O)C2C4C3)cc1Cl (configuration not stated)	inconclusive [activator, partial curve, poor fit]
Cc1ccsc1C1Nc2ccccc2-c2nc3ccccc3n21 (configuration not stated)	inconclusive [activator, single point]
Cc1cc(Nc2cccc(Cl)c2)nc2ccc(NC(=O)c3ccc(F)cc3Cl)cc12	inconclusive [inhibitor, single point]
CCCC1S/C(=N/N=C/c2ccc(C)cc2)N(Cc2ccc(OC)cc2)C1=O (configuration not stated)	inconclusive [inhibitor, single point]
